In PubChem BioAssay AID1508642 (National Center for Advancing Translational Sciences (NCATS), 2021):
Among all 43,000 compounds or so, about 200 (0.47%) were called active. Inconclusive results (about 12%) are left out. The call rests on the fitted dose curve; in most records, active means well fitted cell-killing curve with a large enough effect; inconclusive means small, poorly fitted or top-dose-only effect, or effect the other way; inactive means flat fitted curve, though single readings scatter. This is one part of the list.

assay: Cell viability qHTS assay in S16 Pmp22-F2sN cells; conditions: S16 Pmp22-F2sN Schwann cells (luciferase reporters placed in the Pmp22 gene) viability, CellTiter-Glo, 24 h; series mostly up to 57.5 µM; activity change, negative = cytotoxicity: at the top concentration; further: nearly all actives have a fitted effect of over 65% in size
Description: Assay Provider: Jim Inglese Ph.D. National Center for Advancing Translational Science, National Institutes of Health, Rockville, MD CMT is a heterogeneous group of neurological disorders that affect approximately 1 in 2,500 people. In particular, the most common form of CMT, CMT1A is genetically linked to the duplication of the PMP22 gene which leads to Schwann cell overexpression, thus manifesting itself as a typical case of dose-sensitive diseases. To identify small molecule compounds that can mediate the expression of PMP22 we developed a phenotypic assay screening strategy by utilizing genome editing techniques to construct Schwann cell lines containing novel reporter technology to monitor the transcriptional or translational regulation of PMP22. For high sensitivity we use a bioluminescent reporter system embedded in the 3' UTR of the PMP22 gene (S16(c9) Pmp22-F2sN) to identify compounds that inhibit gene expression. […] We can further discriminate the effect of all transcriptionally active molecules on PMP22 translation or stability with an assay that incorporates a short NLuc peptide (HiBiT) at the C-terminus of expressed PMP22 (S16(f8) PMP22-HiBiT) allowing alpha complementation and luminescence detection of membrane-associated PMP22 protein. These assays were screened against the NCATS Sytravon Library Collection. Miniaturization of these assays to 1536-well plate format for quantitative high throughput screening (qHTS) yielded rich data sets immediately from the qHTS assay (S16(c9) Pmp22-F2sN), when compared with data from a cell viability assay (Cell TiterGlo) to identify compounds that decreased the output signals through cellular toxicity to streamline the selection process of actives for subsequent characterization using the HiBiT assay (S16(f8) PMP22-HiBiT).
Cell viability assay in S16 Pmp22-F2sN cells PROTOCOL TABLE (format as described by Inglese J, Shamu CE and Guy RK. 2007) SEQUENCE No. (e.g., 1, 2, 3, etc.); […] (e.g., Cells, Incubation, Reagent, etc.); VALUE and DESCRIPTION. 1. Cells. Add 500-1,000 cells in 4 uL in growth media (DMEM High Glucose, No Phenol Red media + 10% heat-inactivated FBS + 1% Pen/Strep supplemented media) per well into Greiner 1536-well white/solid bottom high base, TC-treated plates. 2. Compounds. Library compounds and controls added at 23nL per well, transferred by Pin Tool. 3. Incubation. Incubate plates at 37C, 5% CO2, 95% RH for 24 h. 4. Reagent. Add 3uL CellTiter-Glo per well of Greiner 1536-well plates. 5. Incubation. Incubate plates at room temperature for 15 min., protect from light. 6. Detector. FLuc luminescence measured using CCD-based camera (Viewlux). NOTES (numbers refer to Sequence numbers above; values are from representative experiments) 6. Luminescence Read: Clear filter; Exposure = 1 sec, Gain = High, Speed = Slow, Binning = 2X REFERENCES: 1. Inglese J, Shamu CE and Guy RK, Reporting data from high throughput screening of small molecule libraries, Nature Chemical Biology, 2007, 3(8): 438-441. doi.org/10.1038/nchembio0807-438 2. Yasgar A, Shinn P, Jadhav A, Auld DS, Michael S, Zheng W, Austin CP, Inglese J and Simeonov A, Compound Management for Quantitative High-Throughput Screening. J. Assoc. Lab. Auto., 2008, 13: 79-89. doi: 10.1016/j.jala.2007.12.004
On the % scale 0 is the no-effect control and ±100 the full control effect.

Row | SMILES | activity change, negative = cytotoxicity
1 | Fc1ccc(NCc2ccccc2-c2nnc(-c3ccccc3Cl)o2)cc1Cl | inactive: -3.55%
2 | CCc1ccc2c(c1)c(=O)c(S(=O)(=O)c1ccccc1)cn2CC(=O)Nc1cc(C)ccc1C | inactive: 5.77%
3 | COc1cc(NC(=O)CN(C)S(=O)(=O)c2ccc3c(c2)CCCC(=O)N3)cc(OC)c1OC | inactive: 0.934%
4 | COc1ccc(-c2nc3ccccc3o2)cc1NC(=O)COc1c(C)cc(Cl)cc1Cl | inactive: 9.69%
5 | Cc1ccc(CCNC(=O)Cn2ncc3c(=O)oc4ccccc4c32)cc1 | inactive: 8.51%
6 | Cc1ccccc1-c1nc(CS(=O)(=O)CC(=O)Nc2c(C)cccc2C)c(C)o1 | inactive: 18.2%
7 | CCc1nnc(SC(CC)C(=O)NCCOC)c2cc3occc3n12 (stereo unspecified) | inactive: 2.42%
8 | CN1CCN(C(=O)c2cnn(-c3ccccc3)c2C2CCN(C(=O)OC(C)(C)C)CC2)CC1 | inactive: 2.37%
9 | Cc1cccc(NC(=O)CSc2nc(C)cc(C)c2C(=O)Nc2ccc(Cl)cc2)c1 | inactive: -12.6%
10 | Cc1ccc(C)c(NC(=O)Cn2cc(S(=O)(=O)N3CCCC3)c(S(=O)(=O)N3CCCC3)c2)c1 | inactive: -2.27%
11 | COc1ccc(Cl)cc1NC(=O)c1cc(=O)c2cc(C)cc(C)c2o1 | inactive: 1.5%
12 | CCc1nn2c(=O)cc(COC(=O)c3cccc(NC(=O)COc4ccccc4F)c3)nc2s1 | inactive: -7.79%
13 | CC(C)(C)OC(=O)N1CCC(c2c(C(=O)N3CCN(c4ccccc4F)CC3)cnn2C(C)(C)C)CC1 | inactive: 2.82%
14 | COC(=O)c1cc2sc(C)cc2n1Cc1nc(-c2cccc(Br)c2)oc1C | inactive: 7.65%
15 | Cc1cccc(-c2nc3c4ccccc4n(CC(=O)Nc4cccc(F)c4)c(=O)n3n2)c1 | inactive: 12.9%
16 | CCc1ccc2oc(C(=O)N(Cc3cccc(Cl)c3)Cc3ccco3)c(C)c2c1 | inactive: 19.3%
17 | Cc1cc(C)cc(NC(=O)Cn2c(=O)n(CCC(C)C)c(=O)c3cccnc32)c1 | inactive: 1.17%
18 | Cn1c(=O)cc(SCC(=O)NCCc2ccc(Cl)cc2)c2cc(Cl)ccc21 | inactive: 20.3%
19 | COc1cccc(CNC(=O)CCCn2c(=O)c3cccn3c3ccc(F)cc32)c1OC | inactive: -5.06%
20 | COc1ccc(N2C(=O)CS(=O)(=O)C23C(=O)N(Cc2ccccc2)c2ccccc23)cc1 (stereo unspecified) | inactive: -4.46%
21 | COc1cccc(-c2nc(S(=O)(=O)c3ccc(C)cc3)c(NCc3ccccc3)o2)c1 | inactive: 26.3%
22 | CCN1CCN(c2cc(C)c3cc(NC(=O)c4cc(OC)c(OC)c(OC)c4)ccc3n2)CC1 | inactive: -18.5%
23 | CCOc1ccc(-c2nc(CSCC(=O)NCCc3ccccc3)c(C)o2)cc1 | inactive: -28.8%

Row | SMILES | activity change, negative = cytotoxicity
24 | Clc1cccc(N2CCN(c3nc4ccccc4c4nc(-c5ccccc5)nn34)CC2)c1 | inactive: 4.87%
25 | COc1ccc(-c2cc(C(C)=O)c(C)n2CCC(=O)Nc2cccc(C)c2C)cc1 | inactive: -0.713%
26 | O=C(Cn1c2ncccc2c(=O)n1-c1ccccc1)Nc1cccc(C(F)(F)F)c1 | inactive: 6.23%
27 | O=C(CSc1nc2ccccc2c2nc(-c3ccccc3)nn12)Nc1ccc(F)cc1 | inactive: -0.484%
28 | Cc1ccc(Cn2c3ccccc3c3cnn(CC(=O)N4CCCCCC4)c(=O)c32)cc1 | inactive: 16.7%
29 | Cc1ccc(CN2C(=O)CC(c3ccc(Cl)cc3)c3c(C)nn(-c4nc(C)cc(C)n4)c32)cc1 (stereo unspecified) | inactive: -22%
30 | COc1ccc(-n2nc3c(c2NC(=O)C(=O)NCc2ccccc2)CSC3)cc1 | inactive: -4.75%
31 | COc1ccc(N2CCN(C(=O)CCc3nnc4n(C)c(=O)c5sccc5n34)CC2)cc1 | inactive: 14.8%
32 | COc1ccc(-n2c(=O)c3ccc(C(=O)NCc4ccc(C)cc4)cc3n(Cc3ccc(F)cc3Cl)c2=O)cc1 | inactive: 17.7%
33 | CC1(C)N=C(c2ccc(F)cc2)C(=O)N1CC(=O)Nc1ccccc1Cl | inactive: 2.26%
34 | COC(=O)c1cc2oc(C)cc2n1CC(=O)Nc1ccc(OC)c(OC)c1 | inactive: -1.45%
35 | COC(=O)c1ccc(NC(=O)CSc2nccn2Cc2ccc(Cl)cc2)cc1 | inactive: 7.76%
36 | COC(=O)c1sc(S(=O)(=O)N2CCN(c3ccc(OC)cc3)CC2)c(C(=O)OC)c1C | inactive: 4.97%
37 | COc1ccc(CNC(=O)C(=O)Nc2ccccc2OC)cc1 | inactive: -0.385%
38 | Cc1cc(O)c(C(c2ccccc2)N2CCN(c3ccccc3F)CC2)c(=O)n1Cc1ccco1 (stereo unspecified) | inactive: 5.6%
39 | CCC(=O)N1CCc2cc(Br)cc(S(=O)(=O)CCC(=O)NCc3ccc(C)cc3)c21 | inactive: 7.84%
40 | COc1cc(NC(=O)CN2C(=O)C(c3ccc(C)cc3)=NC23CCCCCC3)cc(OC)c1 | inactive: -7.89%
41 | CC(=O)Nc1c(C)nn(-c2ccccc2)c1N1CCC(C(=O)Nc2ccc(Cl)cc2C)CC1 | inactive: -2.27%
42 | COc1ccc(OC)c(NC(=O)CSc2nccn2-c2cc(C)cc(C)c2)c1 | inactive: -7.02%
43 | Cc1ccc2oc(=O)c3cc(C(=O)NCc4ccc(Cl)cc4)sc3c2c1 | inactive: 19.6%
44 | Cc1ccc(NC(=O)C2CCCN2S(=O)(=O)c2cccc3nsnc23)c(Br)c1 (stereo unspecified) | inactive: -4.49%
45 | Cc1ccc(CN2CCc3nc(N4CCN(c5ccccc5F)CC4)ncc3C2)s1 | inactive: -0.836%
46 | COc1ccc(-c2csc3nc(-c4ccc(F)cc4)oc(=O)c23)cc1OC | inactive: 17.8%
